Measured values published in the supplement of paper PMC3334620.
Over roughly 33,000 sequences, “E-score (-0.5 to 0.5)” has its median near -0.035; the highest 2% begin near 0.34. This is one part of the list.

Target: T1, Mot3 (UniProt P54785)
T1 sequence: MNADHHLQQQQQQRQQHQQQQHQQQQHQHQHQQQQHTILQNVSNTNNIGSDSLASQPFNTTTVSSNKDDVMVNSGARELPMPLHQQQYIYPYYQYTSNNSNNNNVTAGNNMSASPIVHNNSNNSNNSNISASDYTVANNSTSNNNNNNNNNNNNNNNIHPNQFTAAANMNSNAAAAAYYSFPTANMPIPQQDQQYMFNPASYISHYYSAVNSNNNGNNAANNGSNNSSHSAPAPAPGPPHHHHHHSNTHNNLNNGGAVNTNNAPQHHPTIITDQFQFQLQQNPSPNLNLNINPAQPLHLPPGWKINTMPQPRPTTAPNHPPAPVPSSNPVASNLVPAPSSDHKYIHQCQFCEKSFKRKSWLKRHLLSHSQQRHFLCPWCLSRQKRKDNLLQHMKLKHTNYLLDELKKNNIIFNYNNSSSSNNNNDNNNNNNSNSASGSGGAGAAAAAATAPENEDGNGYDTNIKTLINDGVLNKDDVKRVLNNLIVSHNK
Assay: PBM E-score (8-mer binding enrichment) (E-score (-0.5 to 0.5)); higher = stronger / more preferred TF binding; most listed sequences are background and not binding sites
Conditions: protein concentration: 200 nM; construct: GST-full length
How it was run: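 Masliner-normalised scans of fluorescent anti-GST signal were the basis for scoring. That signal came from GST-tagged yeast transcription factors applied at about 100-200 nM to double-stranded universal all-10-mer Agilent arrays on fresh or once-stripped slides. Each ungapped eight-base word, pooled with its reverse complement, received an E-score from the Universal PBM Analysis Suite.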

Compared with CAGAATAA, GCTCAATA is lower in “PBM E-score” value: 0.0126 for the first, -0.0871 for the second.

Going from CCAGATAC to AGACAAGA, the “PBM E-score” value rises from -0.291 to -0.00598.

Compared with TAACACAA, CGGTAGAC is lower in “PBM E-score” value: 0.332 for the first, -0.19 for the second.

Compared with AATTGCGA, AACGTCCT is higher in “PBM E-score” value: -0.14 for the first, -0.0572 for the second.

Compared with AATATCAA, AGCTTGGA is lower in “PBM E-score” value: 0.0558 for the first, -0.278 for the second.

Compared with ACAGGTCC, TCCTTCGA is higher in “PBM E-score” value: -0.0406 for the first, 0.0219 for the second.

Compared with ATAAGGTA, GAAAGTTC is lower in “PBM E-score” value: 0.092 for the first, -0.263 for the second.

Going from GATCGAAA to AAGAGTTC, the “PBM E-score” value falls from -0.0242 to -0.188.

First: GAAGATTC
Second: CTTTCGCC
The “PBM E-score” value of the first is higher: -0.0499 for the first, -0.0757 for the second.

Going from GAACACTC to ACAACGCT, the “PBM E-score” value rises from 0.00214 to 0.0615.

First: AGTAGGTA
Second: CCGCCTAA
The “PBM E-score” value of the first is higher: 0.219 for the first, -0.175 for the second.

First: GCTGCCGA
Second: GTACTCTA
The “PBM E-score” value of the first is lower: -0.0685 for the first, 0.0985 for the second.

First: ATTAGGAA
Second: AACGTTAA
The “PBM E-score” value of the first is higher: 0.283 for the first, 0.231 for the second.

First: AGCGGACT
Second: CGGCTAAC
The “PBM E-score” value of the first is lower: -0.22 for the first, -0.0778 for the second.

First: GATTTCCC
Second: GGATCAAC
The “PBM E-score” value of the first is lower: -0.104 for the first, 0.106 for the second.

Compared with CAATGTAC, ATACTAGC is lower in “PBM E-score” value: 0.184 for the first, 0.0471 for the second.

Going from GATGACTA to CTCGAGCC, the “PBM E-score” value rises from -0.116 to -0.0279.

First: AAGAACGC
Second: ATTGGTTG
The “PBM E-score” value of the first is higher: 0.0817 for the first, -0.0796 for the second.

Going from CTGTAATA to ATAAAAAT, the “PBM E-score” value falls from 0.238 to 0.0522.

First: CCCGGGGA
Second: AGATCTTC
The “PBM E-score” value of the first is lower: -0.186 for the first, -0.0165 for the second.

Going from ATTGCTGA to GATAGAAC, the “PBM E-score” value falls from -0.0702 to -0.0824.

Compared with ATCCGGAC, CCGGCCAG is higher in “PBM E-score” value: -0.158 for the first, -0.0827 for the second.

First: CCCCATTA
Second: ATTTACAC
The “PBM E-score” value of the first is lower: 0.00735 for the first, 0.412 for the second.

Compared with GAATGTAC, AAGCTGCC is lower in “PBM E-score” value: 0.028 for the first, -0.154 for the second.

Compared with AATCCTCA, CAAAACTA is higher in “PBM E-score” value: -0.12 for the first, 0.156 for the second.

Going from GACGCACC to GGATCGAA, the “PBM E-score” value rises from -0.124 to -0.0248.

Compared with AAATAGCG, CAACCGTA is lower in “PBM E-score” value: 0.11 for the first, -0.0166 for the second.

First: CGCTATCA
Second: ATAATATG
The “PBM E-score” value of the first is lower: -0.0807 for the first, 0.121 for the second.

Going from CCCCTGTC to CCGTTTTC, the “PBM E-score” value rises from -0.106 to 0.0612.

Going from AACTCCCA to ACACCTTG, the “PBM E-score” value rises from -0.309 to 0.193.

Going from AGGCCTAA to GATCCCTA, the “PBM E-score” value rises from -0.187 to 0.0167.

First: GTCGGTGA
Second: CACGAAAA
The “PBM E-score” value of the first is lower: -0.212 for the first, 0.166 for the second.

Going from ACCTTGTA to CGCCTGCC, the “PBM E-score” value falls from 0.338 to 0.0805.

Going from GCTACCGA to AAGTCCGC, the “PBM E-score” value rises from -0.174 to -0.133.

First: CTCCGCTA
Second: ACAGAACG
The “PBM E-score” value of the first is lower: -0.134 for the first, -0.0813 for the second.

First: AGGTCCGG
Second: CCGAGAAC
The “PBM E-score” value of the first is lower: -0.117 for the first, -0.0817 for the second.

First: ACGCTGCA
Second: AACCTCTT
The “PBM E-score” value of the first is lower: -0.135 for the first, 0.165 for the second.

Going from AACGCTAC to GCAAATCA, the “PBM E-score” value rises from -0.0449 to 0.0867.

Going from ATATCGTC to AAGCTCAT, the “PBM E-score” value falls from 0.0109 to -0.164.

Going from CCTCACCC to GCTCTCAC, the “PBM E-score” value falls from -0.147 to -0.23.

First: AGGATCCA
Second: TGGACAAA
The “PBM E-score” value of the first is lower: -0.116 for the first, -0.103 for the second.

Compared with CGTTGCAC, GATATCAC is lower in “PBM E-score” value: 0.00668 for the first, 0.00517 for the second.

First: CCGTTTCG
Second: CGCACCGA
The “PBM E-score” value of the first is higher: -0.138 for the first, -0.27 for the second.

Compared with ACAGTTCG, AATTCGAC is lower in “PBM E-score” value: 0.0369 for the first, -0.0126 for the second.

Compared with CCACTGAC, GACTAGTA is higher in “PBM E-score” value: -0.281 for the first, -0.0381 for the second.

First: ACTATTTC
Second: ACCCCCCG
The “PBM E-score” value of the first is higher: 0.0153 for the first, -0.242 for the second.

Going from AATCAGAA to AATTTGAG, the “PBM E-score” value falls from 0.0332 to -0.0957.
